# According to PubChem BioAssay AID1468 (National Center for Advancing Translational Sciences (NCATS), 2008):
# About 1,100 (0.39%) of roughly 280,000 compounds were called active. The inconclusive results got no clear call from the source; some entries with a clear call stand among them for comparison. Calls follow the shape of the dose curve; as a rule, active = well fitted inhibition curve with a large enough effect; inconclusive = small, poorly fitted or top-dose-only effect, or effect the other way; inactive = flat fitted curve, though single readings scatter. Potencies of inconclusive entries are left out as doubtful fits.
# Molecular target: Microtubule-associated protein tau (Homo sapiens) (UniProt P10636)
# Sequence of UniProt P10636 (P10636 whole entry, looked up): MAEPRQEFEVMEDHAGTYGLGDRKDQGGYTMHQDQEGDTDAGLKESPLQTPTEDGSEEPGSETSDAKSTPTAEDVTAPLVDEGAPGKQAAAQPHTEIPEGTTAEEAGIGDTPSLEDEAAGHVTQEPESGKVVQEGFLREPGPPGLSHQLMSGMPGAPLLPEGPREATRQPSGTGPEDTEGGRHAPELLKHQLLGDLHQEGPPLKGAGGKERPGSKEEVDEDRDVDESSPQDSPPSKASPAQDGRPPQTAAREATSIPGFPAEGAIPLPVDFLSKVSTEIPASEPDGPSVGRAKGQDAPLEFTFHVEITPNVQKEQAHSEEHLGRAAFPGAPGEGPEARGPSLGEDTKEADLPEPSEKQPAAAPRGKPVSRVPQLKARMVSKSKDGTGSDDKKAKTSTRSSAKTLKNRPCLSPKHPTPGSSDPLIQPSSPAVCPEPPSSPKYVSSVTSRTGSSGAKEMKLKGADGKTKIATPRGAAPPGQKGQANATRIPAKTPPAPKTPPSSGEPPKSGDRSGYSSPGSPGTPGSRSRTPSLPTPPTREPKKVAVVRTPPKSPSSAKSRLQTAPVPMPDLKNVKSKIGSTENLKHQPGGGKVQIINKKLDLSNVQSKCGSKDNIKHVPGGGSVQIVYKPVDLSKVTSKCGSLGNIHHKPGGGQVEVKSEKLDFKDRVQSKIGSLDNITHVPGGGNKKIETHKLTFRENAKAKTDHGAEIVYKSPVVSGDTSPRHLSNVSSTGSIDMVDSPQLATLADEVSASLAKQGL
# Assay: qHTS for Inhibitors of Tau Fibril Formation, Fluorescence Polarization; also: nearly all actives have a fitted effect of over 55% in size
# Conditions: K18 P301L tau heparin fibrillization, Alexa594 FP, 6 h; series mostly up to 57.7 µM; activity, negative = inhibition: at the top concentration
# Procedure, shortened: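 Recombinant K18 P301L […], labeled with Alexa 594 at 0.24 uM over 15 uM unlabeled; heparin inducer 20 uM final; 37 C, 6 hr; FP endpoint.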
# % is scaled to controls: 0 for no effect and ±100 for the full control effect; potency is read from the fitted curve at half-maximal effect; tags tell the direction and shape of the fitted curve.
SMILES,"activity, negative = inhibition",Potency
CN(C)Cc1ccccc1-c1ccc2ncnc(N3CCOCC3)c2c1,inactive: -2.67%,–
Cc1ccc2c(c1)-c1cc(C)nn1C(c1cc(Br)ccc1O)N2 (configuration not stated),–,"inconclusive [inhibitor, single point]"
COc1cc(OC)c(OC)cc1/C=C/c1nc2cc3ccccc3cc2c(=O)n1-c1ccc(F)cc1F,–,"inconclusive [activator, partial curve, poor fit]"
CC(C)CCNC(=O)c1c[nH]c2ccc(S(=O)(=O)N3CCC4(CC3)OCCO4)cc2c1=O,–,"inconclusive [inhibitor, single point]"
COc1cc(CN(C)CCc2ccccn2)cc(OC)c1OC,inactive: 6.15%,–
CCc1ccc(CNC(=O)c2ccc(NC(=O)N3CC(C)Sc4ccccc43)cc2)cc1 (configuration not stated),–,"inconclusive [inhibitor, partial curve]"
CC(C)(C)c1ccc(C(=O)NCC(c2cccs2)S(=O)(=O)c2ccccc2)cc1 (configuration not stated),–,"inconclusive [inhibitor, full curve, poor fit]"
CCC(C)NC(=O)CSc1nc2n[nH]c(C)c2c(=N)n1-c1ccc(OC)cc1 (configuration not stated),–,"inconclusive [inhibitor, partial curve, poor fit]"
COC(=O)c1ccc2c(=O)n(CCCCCC(=O)NCc3ccc(Cl)cc3)c(=O)[nH]c2c1,–,"inconclusive [inhibitor, partial curve, poor fit]"
CC1CCc2sc(C(=O)Nc3ccc(C(N)=O)cc3)cc2C1 (configuration not stated),–,"inconclusive [inhibitor, single point]"
O=C(NCCNCC(O)COc1ccc(O)cc1)N1CCOCC1 (configuration not stated),–,"inconclusive [inhibitor, partial curve]"
COc1ccc(NC(=O)CSc2nc(NS(=O)(=O)c3ccc(C)cc3)cc(=O)[nH]2)cc1,–,"inconclusive [inhibitor, single point]"
O=C(Nc1ccc(S(=O)(=O)N2CCc3ccccc32)cc1)c1ccc2c(c1)OCO2,–,"inconclusive [inhibitor, partial curve]"
O=C(Nc1ccc(-n2ccc(C(F)(F)F)n2)cc1)Nc1cccc(Cl)c1,–,active: 3.55 µM
Cc1nn2c(-c3cccc(NC(=O)c4ccccc4)c3)nnc2c2ccccc12,–,"inconclusive [activator, partial curve]"
Cc1ccc(N(CC(=O)Nc2ccc(-c3nc4ccc(C)cc4s3)cc2)S(C)(=O)=O)cc1,–,"inconclusive [inhibitor, partial curve]"
O=C(Nc1cc(Cl)cc(Cl)c1)c1ccc(F)c(S(=O)(=O)N2CCc3ccccc32)c1,–,"inconclusive [inhibitor, full curve]"
